# Data: the supplement of paper PMC7826260
# This is one part of the list. Each Rep nickase domain was tested in vitro on the same pool of single strands (1 h at 37 °C, 3 µM enzyme); the outer parts of the 90-letter strands are left off. Values are log2 of uncut reads against the no-enzyme pool; uncut sequences lie near 0, cut ones below; no hit call is given. Because reads are shares of a total, they shift together; values above 0 arise when much of the pool is cut.
# Columns and labels:
# Assay in all cases: uncleaved DNA left, log2 of reads against the no-enzyme library (log2 ratio); higher = less cleavage (more negative = more Rep cleavage of the k-mer); sequences stand for … in CTCGTCCG…ACCGGAGA
# [1] = system: T1, Rep nickase domain of Muscovy duck circovirus
# T1 sequence (Rep 1-111, printed without the tag): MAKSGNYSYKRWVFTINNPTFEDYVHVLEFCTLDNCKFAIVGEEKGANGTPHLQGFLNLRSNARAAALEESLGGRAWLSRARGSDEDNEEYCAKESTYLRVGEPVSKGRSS
# Procedure: (§1)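 A pool of 90-nt single-stranded DNAs with seven random bases just before the constant AC of the nick site (name = the seven bases) was cut by 3 µM recombinant His6-SUMO-tagged Rep nickase domain (300 nM DNA, 50 mM HEPES pH 8.0, 50 mM NaCl, 1 mM MnCl2, 1 h, 37 °C, three replicates). Uncut DNA was amplified and sequenced.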
# [2] = system: T2, Rep nickase domain of banana bunchy top virus
# T2 sequence (Rep 1-94, printed without the tag): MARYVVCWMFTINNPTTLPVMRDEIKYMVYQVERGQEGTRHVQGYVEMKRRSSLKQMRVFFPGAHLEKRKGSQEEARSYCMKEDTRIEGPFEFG
# Procedure: as §1
# [3] = system: T3, Rep nickase domain of cabbage leaf curl virus
# T3 sequence (Rep 1-116, printed without the tag): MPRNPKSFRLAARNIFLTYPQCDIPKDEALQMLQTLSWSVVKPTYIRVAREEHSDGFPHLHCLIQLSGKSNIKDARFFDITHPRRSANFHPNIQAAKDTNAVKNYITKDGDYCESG
# Procedure: as §1
# [4] = system: T4, Rep nickase domain of chickpea chlorotic dwarf virus
# T4 sequence (Rep 1-124, printed without the tag): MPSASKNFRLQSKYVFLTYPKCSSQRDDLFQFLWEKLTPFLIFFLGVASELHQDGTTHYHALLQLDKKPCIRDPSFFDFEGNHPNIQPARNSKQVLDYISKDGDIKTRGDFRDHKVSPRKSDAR
# Procedure: as §1
# [5] = system: T5, Rep nickase domain of faba bean necrotic yellows virus
# T5 sequence (Rep 1-98, printed without the tag): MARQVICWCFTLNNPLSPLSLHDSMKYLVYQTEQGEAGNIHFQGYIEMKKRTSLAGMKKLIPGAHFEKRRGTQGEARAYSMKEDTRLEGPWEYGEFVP
# Procedure: as §1
# [6] = system: T6, Rep nickase domain of maize striate mosaic virus
# T6 sequence (Rep 1-117, printed without the tag): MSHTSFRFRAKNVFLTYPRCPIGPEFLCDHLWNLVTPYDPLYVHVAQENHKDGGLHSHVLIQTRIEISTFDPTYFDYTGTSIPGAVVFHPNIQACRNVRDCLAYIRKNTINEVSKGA
# Procedure: as §1
# [7] = system: T7, Rep nickase domain of porcine circovirus 2
# T7 sequence (Rep 2-116, printed without the tag): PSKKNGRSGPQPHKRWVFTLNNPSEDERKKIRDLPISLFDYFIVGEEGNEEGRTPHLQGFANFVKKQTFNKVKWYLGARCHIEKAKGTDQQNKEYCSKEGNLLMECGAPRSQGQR
# Procedure: as §1
# [8] = system: T8, Rep nickase domain of tomato golden mosaic virus
# T8 sequence (Rep 1-124, printed without the tag): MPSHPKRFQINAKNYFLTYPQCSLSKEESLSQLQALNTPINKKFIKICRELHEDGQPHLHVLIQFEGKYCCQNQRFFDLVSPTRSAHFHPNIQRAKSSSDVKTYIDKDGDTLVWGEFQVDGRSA
# Procedure: as §1
# [9] = system: T9, Rep nickase domain of tomato yellow leaf curl virus
# T9 sequence (Rep 1-136, printed without the tag): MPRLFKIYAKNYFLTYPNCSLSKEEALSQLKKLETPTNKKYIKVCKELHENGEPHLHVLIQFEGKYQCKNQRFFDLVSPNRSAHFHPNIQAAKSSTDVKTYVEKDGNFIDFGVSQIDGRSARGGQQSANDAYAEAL
# Procedure: as §1
# [10] = system: T10, Rep nickase domain of wheat dwarf virus
# T10 sequence (Rep 1-137, printed without the tag): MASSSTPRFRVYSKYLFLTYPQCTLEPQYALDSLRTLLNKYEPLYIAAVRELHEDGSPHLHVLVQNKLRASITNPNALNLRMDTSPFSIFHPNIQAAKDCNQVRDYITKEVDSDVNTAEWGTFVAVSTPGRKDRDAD
# Procedure: as §1
Sequence,uncleaved DNA left (log2) [1],uncleaved DNA left (log2) [2],uncleaved DNA left (log2) [3],uncleaved DNA left (log2) [4],uncleaved DNA left (log2) [5],uncleaved DNA left (log2) [6],uncleaved DNA left (log2) [7],uncleaved DNA left (log2) [8],uncleaved DNA left (log2) [9],uncleaved DNA left (log2) [10]
GCGTGTA,0.0661,0.0577,0.0382,0.0797,0.0473,0.312,-0.27,0.0529,-0.0319,-0.0122
TTTGATG,-0.0829,-0.184,-0.528,-0.664,-0.0961,-1.15,-0.0625,-0.0368,-0.216,-0.0796
TCCTTTT,-2.98,-0.357,-0.193,-2.12,-0.0515,-0.795,-3.32,-0.28,-0.0217,-0.359
AGTAACG,0.0544,0.0553,-0.725,-0.789,0.0143,-1.01,0.132,0.0422,0.0565,-0.0262
GCTCGCA,0.0244,-0.0151,-0.0602,0.23,-0.0964,-0.546,0.0636,0.0354,-0.0566,-0.0627
TTCGACA,0.0235,-0.0229,0.142,-0.46,0.00996,0.35,-0.231,-0.029,0.0375,0.0175
TTCTTGC,-0.0896,-0.169,-0.863,-0.407,-0.0206,-1.25,0.0492,-0.189,-0.0707,-0.213
CTGAAAC,0.244,0.123,0.0461,-0.158,0.145,-0.422,0.0965,0.101,0.0469,0.101
CATCATG,0.0131,0.0297,-0.702,-0.522,0.0481,-1.2,0.0391,-0.0359,-0.0357,-0.105
CATGCGC,0.0344,-0.0253,-0.873,0.119,-0.0755,-0.712,0.0982,-0.259,-0.0821,-0.128
TCCGGGC,-0.00812,0.000783,0.307,0.681,0.0969,1.28,0.121,0.0572,-0.0256,-0.0139
TGTTACT,-3.7,-0.688,-2.46,-2.8,-0.496,-0.0207,-3.88,-1.99,-0.0799,-2.28
CAACGCC,0.0946,-0.0114,-0.0992,-0.556,-0.00939,-0.563,0.0432,0.0309,-0.123,-0.0709
CGACCGG,-0.0527,-1.18e-05,0.0945,0.449,-0.0394,0.131,0.123,0.041,-0.0087,0.0639
ACCGGGA,0.107,0.00564,0.692,1.01,0.0368,1.68,0.149,0.0376,-0.105,0.212
GATATCA,0.105,0.235,0.306,0.612,0.0368,1.05,0.0941,0.0649,0.137,0.285
ATAAACT,0.131,-0.0279,-0.11,-2.62,0.029,-0.918,-0.0778,0.125,-0.0312,-0.0334
TCCGTTG,0.117,-0.0691,-0.223,-0.467,-0.0176,-0.389,0.212,-0.111,0.00552,0.0776
ATTAGGC,0.121,0.116,0.197,0.512,-0.0582,-0.489,0.201,0.109,0.122,0.121
TAGGGTT,0.0345,-0.0588,-0.0656,0.148,-0.0431,1.59,-1.6,0.0301,-0.0713,-0.0776
GGGATCA,0.0697,0.136,0.88,2,-0.0418,2.21,0.139,-0.0315,0.037,0.137
ACTAATT,0.0298,-0.0329,-0.0792,-2.4,-0.0047,-0.669,-2.11,0.0807,0.0405,0.0669
CATCTGC,-0.0966,-0.0536,-0.599,-0.651,-0.00613,-1.03,0.0705,-0.168,-0.0246,-0.0591
GATAGTA,-0.0388,0.0972,0.284,-0.0146,0.105,0.733,-0.0391,0.14,0.143,0.183
AAAACAG,0.00923,0.0988,-0.639,-0.718,0.11,-1.04,0.258,0.0957,0.0797,-0.00919
TGATTGC,-0.0166,-0.054,-0.829,-0.153,0.0214,-1.04,0.119,-0.111,0.0292,-0.17
TCGACGC,-0.101,-0.099,-0.133,0.253,-0.107,-0.00494,0.013,-0.244,-0.164,-0.0903
CGTTCAA,-0.0441,-0.0812,0.0528,0.0806,-0.129,-0.314,-0.19,-0.0776,0.0528,0.000486
CCTATTT,-0.00736,-0.116,-0.188,-2.68,-0.0676,-0.665,-0.833,0.00576,-0.0604,-0.0494
TAGCACC,0.112,0.0295,0.097,-0.323,-0.0117,-0.179,-0.171,0.00533,0.0867,0.0717
